The list shows a part of the results.
B1: chr7:135928980:135929074:-|3pUTR|ENSG00000105887|msi1_unk|total|mutant (ssRNA)
RNA: GGGAGUUCUACAGUCCGACGAUCUAAAAACCGAAUCACCGCCAUAAGCCUGUCCGUAUCAUAUGAAGAGAGAACAGUUAUCUCCGUACCUAUGGAUUUUCUUUAUUUGCUGUUUGAAUGGAUUGACCUUGGUUAUGUGUUGAGCAACAGAGGAUUGAGCAUCA
B2: ENSG00000197746:stop:overlap|stop_codon|ENSG00000197746|stop_codon|NA|stop_codon (ssRNA)
RNA: GGGAGUUCUACAGUCCGACGAUCACACAGAGACAGCAGCCCAGUGCAAUGCUGUCGAGCAUUGCAAACGCCAUGUGUGGAACUAGGAGGAGGAAUAUUCCAUCUUGGCAGAAACCACAGCAUUGGUUUUUUUCUACUUGUGUGCAACAGAGGAUUGAGCAUCA
B3: chr10:121967677:121967791:-|CDS|ENSG00000107672|unk|FALSE|bound_elsewhere (ssRNA)
RNA: GGGAGUUCUACAGUCCGACGAUCAAAUCCGCUAGAAGCUGAAGAACUCAUCCGUGAUGAAGAUAGUCCUGAUUUUGAAUUCAUAGUCUAUGACUCCUGGAAGAUAACAGGCAGAACAGCAGAAAACACCUUUAAUAAAACCCACAACAGAGGAUUGAGCAUCA
B4: chr15:64957256:64957357:+|3pUTR|ENSG00000166839|msi1|FALSE|unique (ssRNA)
RNA: GGGAGUUCUACAGUCCGACGAUCGCUGGAAAAUUGAAACAUAAUUUCACAAUUAUUCCUUUUUCCACCUUAAAUAAUAAGAGUAGAAUACUUUCUGUGUUUUUAUCUUAUACACAUGAAUAAAUGCUAUGGCUUAUCACAGUUCAACAGAGGAUUGAGCAUCA
B5: chr16:46956602:46956663:-|3pUTR|ENSG00000069345|msi1_unk|total|mutant (ssRNA)
RNA: GGGAGUUCUACAGUCCGACGAUCGUUUGUACAAUUUGUCCUGAAGCUUUGUGUUUGGCUGCACCUGCAUAAGCUGCUACAAACCGAAUAAAGAAUUUCACCGCCUGUAUCUAUCAUUCCGAUGCAUGGAAAAAAAUGGGCUUUCAACAGAGGAUUGAGCAUCA
B6: chr9:104598459:104599413:-|CDS|ENSG00000277556|control|control|control (ssRNA)
RNA: GGGAGUUCUACAGUCCGACGAUCCUUAUAUUCAUAUUCUACAGGGUGAUGACUCCCAUGAUGAAUCCUUUAAUCUACAGUCUUAGAAACAAGGAUGUGAAGGAGGCAGUAAAACACCUACUGAGAAGAAAAAAUUUUAACAAGCAACAGAGGAUUGAGCAUCA
B7: ENSG00000152377:stop:overlap|stop_codon|ENSG00000152377|stop_codon|NA|stop_codon (ssRNA)
RNA: GGGAGUUCUACAGUCCGACGAUCUGACAGAGGAUGAUGAGGAUGAGGAUGAUGACAAAGAGGAUGAGGUCGGGUACAUAUGGUAGUGCCCACAAGAAAGAGGACACAAGUUUUGCACAAAAUUGCAAGUCACUUCCUAUUCCUCAACAGAGGAUUGAGCAUCA
B8: chr1:93180074:93180188:-|CDS|ENSG00000117500|unk|total|mutant (ssRNA)
RNA: GGGAGUUCUACAGUCCGACGAUCCUGGCCGCUCUGCCUCCGGUGCUGCUGCCUGGGGCGGCCGGCUUCACACCUUCCCUCGACCGCGACUUCACCUUUACCCUUCCCGCCGGCCAGAAGGAGUGCUUCUACCAGCCCAUGCCCCAACAGAGGAUUGAGCAUCA
B9: chr12:100626600:100626701:+|3pUTR|ENSG00000139354|unk|total|mutant (ssRNA)
RNA: GGGAGUUCUACAGUCCGACGAUCAAUUUUAUCAUCAAGUAUUCCCUUAUAAAACCAAGUAACACUUCUUUAUCAGUAACUUUCCGAACUUAAAAGAAAGCAAAAAGUAAAUGGAAUUGCCGGCAAUUUAUGAAUCCCCGCCGACAACAGAGGAUUGAGCAUCA
B10: chr4:177362735:177362840:+|3pUTR|ENSG00000109674|unk|total|mutant (ssRNA)
RNA: GGGAGUUCUACAGUCCGACGAUCAAAGUGUUUUCCGUAUGCUUUCCGUCUCUUGUAACUGGGGAGAAGCAGUGUUUUUUUUUCCGGAAAGGAUUAUGCGACACAAUAAAAUAAGAUAUUCUGUCUGCCGUGAAUACAUUUCUCCAACAGAGGAUUGAGCAUCA
B11: ENSG00000198589:be:win_901|CDS|ENSG00000198589|bound_else_gene|NA|bound_elsewhere_windowed (ssRNA)
RNA: GGGAGUUCUACAGUCCGACGAUCAUGGUUACCAUAGUACACAUCUAUAACCGAUGGAAGAAUAGUGAACUUCGAUGUUAUGUGAAUGGUGAGCUGGCUUCCUAUGGAGAGAUAACAUGGUUUGUCAACACUAGCGAUACCUUUCAACAGAGGAUUGAGCAUCA
B12: chr5:32419879:32419980:-|CDS|ENSG00000056097|msi1|total|mutant (ssRNA)
RNA: GGGAGUUCUACAGUCCGACGAUCAGUUACUGCUGCCUAUGCACCAGCAGCCGCCACAGUUGCAGUUGCCAGGCCUGCUCCAGCCGCUGUUGCAGCUGCUGCAACAGCUGCUGCUUAUGGAGGCUACCCCACUGCACACACAGCCAACAGAGGAUUGAGCAUCA
B13: chr5:14398947:14399058:+|CDS|ENSG00000038382|unk|total|mutant (ssRNA)
RNA: GGGAGUUCUACAGUCCGACGAUCCCCAAAAACCUUAAUUCGAAAGGGUCGAGAACGGCAUCUCUUCCUUUUUGAAAUGUCCUCCGUAUUCCGUAAAGAAGUGAAAGAUUCCAGUGGGAGAAGCAAGUACCUUUAUAAAAGCAACAACAGAGGAUUGAGCAUCA
B14: chr1:37534448:37537747:-|three_prime_utr|ENSG00000163877|control|control|control (ssRNA)
RNA: GGGAGUUCUACAGUCCGACGAUCCACAUGCCUGCAGGCAUUUGUUUUCAGAACAGUCUCACCAAUUACAACACACCGUGUUUUAGUAGAAGUGUUGUGGUUUUAGUUGGUGCUUUCAGAACUGCUGCCUAGGAAACUAUAAACCAACAGAGGAUUGAGCAUCA
B15: chr2:219567793:219567894:-|CDS|ENSG00000124006|msi1|total|mutant (ssRNA)
RNA: GGGAGUUCUACAGUCCGACGAUCCCUGCCCCGGAAGCUCGACGUCCUGGAAGGAGAGAAUGCUGUGCUGCCCGUGGAAACUCCCGAGGCCGGGGUCGAGGGACGCUGGAGCCGUGAUGGGGAGGAGCUGCCGGUCAUCUGCCACAACAGAGGAUUGAGCAUCA
B16: chr21:31659700:31659757:+|5pUTR|ENSG00000142168|msi1_unk|FALSE|overlapping (ssRNA)
RNA: GGGAGUUCUACAGUCCGACGAUCCGAGGCGCGGAGGUCUGGCCUAUAAAGUAGUCGCGGAGACGGGGUGCUGGUUUGCGUCGUAGUCUCCUGCAGCGUCUGGGGUUUCCGUUGCAGUCCUCGGAACCAGGACCUCGGCGUGGCCAACAGAGGAUUGAGCAUCA
B17: chr8:41543231:41543332:+|3pUTR|ENSG00000147536|msi1|total|mutant (ssRNA)
RNA: GGGAGUUCUACAGUCCGACGAUCAAACCAUUAUUAAAUUUCCAUUCUGCAGCAGAAGGCACCUCUGGACGGCUCCCGGCUUGCCGUUUAAUGAAGUAUGUGCUCCCUGCUGUUAACCCGCAGCCCUCCCCAACUCUCCAGCAGCAACAGAGGAUUGAGCAUCA
B18: chr3:50299934:50300035:-|3pUTR|ENSG00000114378|unk|total|mutant (ssRNA)
RNA: GGGAGUUCUACAGUCCGACGAUCCGUUGCCCAAGGUUGCACAGCAAGAAAAGGGAGAAGUUGAGAUUCAAACCCAGGCUGUCCCGCUCCGGGGGUACAGCCCUUGCACUCCUACUGAGUUUGUGGUAACCAGCCCUGCACGACCAACAGAGGAUUGAGCAUCA
B19: ENSG00000131238:stop:overlap|stop_codon|ENSG00000131238|stop_codon|NA|stop_codon (ssRNA)
RNA: GGGAGUUCUACAGUCCGACGAUCCUUCACCUCCCAUGAUCAAUCUGAUCUCGGUUGGGGGACAACAUCAAGUGCCUUGUGCAUAGUGGGUAUUCGAUACAUCAUUAUUGAAGGAGUGGAUAUUUGUCAUCUACCACUGUAGGUCAACAGAGGAUUGAGCAUCA
B20: chr6:107870184:107870285:-|3pUTR|ENSG00000025796|msi1|FALSE|bound_elsewhere (ssRNA)
RNA: GGGAGUUCUACAGUCCGACGAUCUAAUAUUUCCUAUAAAAGGGUGAAAGCAGUUUCUUUCUCUAUAACCUCAAUCACCAGUUUAGUGAGAGCCUUUCUUGGCAGGCAGGAGGCAGUGUCACUGAGGAUUUUUUUCAUUUACUUCAACAGAGGAUUGAGCAUCA
B21: chr5:139396562:139396955:-|CDS|ENSG00000170469|control|control|control (ssRNA)
RNA: GGGAGUUCUACAGUCCGACGAUCAGGGGUCCACAAGGUGGGGGCUUGUAGCCUAGGGGAGGAGCUGGGUCUUUGUUGUCUGGUAGGCACCACCGCUUCCUUUGGGUAUUUAAUCCCUUCCUAUAUAAACAGCCCUGGUUACCCCAACAGAGGAUUGAGCAUCA
B22: chr4:119293926:119294030:+|3pUTR|ENSG00000145390|unk|FALSE|unique (ssRNA)
RNA: GGGAGUUCUACAGUCCGACGAUCGAUGGAAUUUAAUUUUGCUCCUAGAAUUUUUGUCUUCAGAAUAUCUAGUUAAGAUAAAUUAGGCCUUUGACUAUUAUAGGUAUUCAUAAAUGCUACUUUAGCCAUGUAAGUUAAAAAGUUCAACAGAGGAUUGAGCAUCA

Target: MSI1 full-length (mouse, UniProt Q61474 1-362)
UniProt Q61474, sequence (Q61474 whole entry): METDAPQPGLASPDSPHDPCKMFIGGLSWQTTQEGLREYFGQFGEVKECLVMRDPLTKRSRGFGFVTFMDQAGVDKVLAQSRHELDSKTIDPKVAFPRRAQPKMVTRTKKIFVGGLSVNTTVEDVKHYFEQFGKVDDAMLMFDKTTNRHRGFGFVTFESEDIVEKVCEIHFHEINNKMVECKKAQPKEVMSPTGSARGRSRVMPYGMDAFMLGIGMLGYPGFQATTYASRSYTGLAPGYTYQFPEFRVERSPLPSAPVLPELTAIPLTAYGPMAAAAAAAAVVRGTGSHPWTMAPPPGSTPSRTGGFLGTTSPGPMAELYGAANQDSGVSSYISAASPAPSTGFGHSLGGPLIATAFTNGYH
Test: nsRBNS (natural sequence RNA bind-n-seq); RBNS binding buffer (assumed for nsRBNS): 25 mM Tris pH 7.5, 150 mM KCl, 3 mM MgCl2, 0.01% Triton X-100, 500 ug/ml BSA, 20 U/ml SUPERase-In, 4 C; UNK is unkempt and MSI1 is Musashi-1; names of the RNAs are library labels; protein concentration not given here; high values mean tight binding

Binder | binding signal [enrichment R]
B1 | 0.274
B2 | 0.799
B3 | 0.664
B4 | 0.709
B5 | 0.189
B6 | 0.534
B7 | 0.454
B8 | 0.67
B9 | 0.907
B10 | 0.359
B11 | 0.574
B12 | 0.278
B13 | 0.383
B14 | 1.49
B15 | 0.518
B16 | 0.511
B17 | 0.959
B18 | 0.353
B19 | 0.929
B20 | 0.579
B21 | 1.74
B22 | 7.25
